# Data as given in PMC4374383.
# Sequences of proteins named here, by UniProt entry; tags and fusion partners are left off.
# UniProt Q02078: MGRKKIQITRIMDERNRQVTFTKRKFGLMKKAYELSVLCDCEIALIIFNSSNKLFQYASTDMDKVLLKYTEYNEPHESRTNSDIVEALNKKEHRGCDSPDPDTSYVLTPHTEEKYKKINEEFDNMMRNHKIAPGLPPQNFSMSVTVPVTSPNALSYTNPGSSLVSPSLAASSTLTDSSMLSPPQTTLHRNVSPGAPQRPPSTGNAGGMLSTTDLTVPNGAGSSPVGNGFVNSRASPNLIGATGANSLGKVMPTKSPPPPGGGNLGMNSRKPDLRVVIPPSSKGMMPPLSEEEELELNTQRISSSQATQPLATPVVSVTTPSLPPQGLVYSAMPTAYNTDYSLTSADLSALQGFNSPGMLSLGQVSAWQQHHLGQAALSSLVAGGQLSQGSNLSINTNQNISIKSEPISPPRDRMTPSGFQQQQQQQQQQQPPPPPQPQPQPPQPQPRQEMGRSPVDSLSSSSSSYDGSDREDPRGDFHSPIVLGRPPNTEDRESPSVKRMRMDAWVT
# UniProt Q9UKV0: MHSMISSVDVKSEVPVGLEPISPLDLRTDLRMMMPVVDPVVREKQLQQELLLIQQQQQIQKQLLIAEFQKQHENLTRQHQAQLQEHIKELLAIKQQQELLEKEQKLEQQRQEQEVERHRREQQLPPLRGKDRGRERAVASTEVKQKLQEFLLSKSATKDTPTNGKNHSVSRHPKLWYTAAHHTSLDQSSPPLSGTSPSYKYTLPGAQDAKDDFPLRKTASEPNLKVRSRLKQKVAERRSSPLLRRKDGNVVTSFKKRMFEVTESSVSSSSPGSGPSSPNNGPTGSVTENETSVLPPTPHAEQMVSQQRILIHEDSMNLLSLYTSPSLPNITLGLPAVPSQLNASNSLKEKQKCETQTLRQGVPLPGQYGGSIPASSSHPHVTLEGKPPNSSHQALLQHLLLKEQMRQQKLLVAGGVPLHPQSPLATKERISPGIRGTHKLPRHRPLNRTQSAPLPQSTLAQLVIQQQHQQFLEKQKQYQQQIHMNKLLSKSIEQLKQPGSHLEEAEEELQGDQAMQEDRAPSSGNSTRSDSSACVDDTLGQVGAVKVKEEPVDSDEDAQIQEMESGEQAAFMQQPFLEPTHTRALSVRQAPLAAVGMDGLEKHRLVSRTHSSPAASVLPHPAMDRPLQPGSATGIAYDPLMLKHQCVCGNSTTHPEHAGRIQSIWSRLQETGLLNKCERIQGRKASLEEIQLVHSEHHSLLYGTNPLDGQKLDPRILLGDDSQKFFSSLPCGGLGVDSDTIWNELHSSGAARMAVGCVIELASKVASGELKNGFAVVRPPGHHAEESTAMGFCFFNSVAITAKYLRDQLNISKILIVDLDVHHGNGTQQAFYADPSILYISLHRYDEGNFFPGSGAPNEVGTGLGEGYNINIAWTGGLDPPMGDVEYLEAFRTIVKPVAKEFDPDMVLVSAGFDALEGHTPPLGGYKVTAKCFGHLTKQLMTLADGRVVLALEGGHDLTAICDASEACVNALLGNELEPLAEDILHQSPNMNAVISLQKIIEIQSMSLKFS
# UniProt P16220: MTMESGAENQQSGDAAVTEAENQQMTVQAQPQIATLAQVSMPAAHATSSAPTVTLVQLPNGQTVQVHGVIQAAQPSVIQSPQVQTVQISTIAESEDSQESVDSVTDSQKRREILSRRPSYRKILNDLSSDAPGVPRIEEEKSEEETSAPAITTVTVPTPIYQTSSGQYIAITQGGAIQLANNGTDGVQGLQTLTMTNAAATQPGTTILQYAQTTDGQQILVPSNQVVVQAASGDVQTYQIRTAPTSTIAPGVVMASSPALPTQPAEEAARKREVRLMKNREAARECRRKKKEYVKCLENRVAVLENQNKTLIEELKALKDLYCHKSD
# UniProt Q92831: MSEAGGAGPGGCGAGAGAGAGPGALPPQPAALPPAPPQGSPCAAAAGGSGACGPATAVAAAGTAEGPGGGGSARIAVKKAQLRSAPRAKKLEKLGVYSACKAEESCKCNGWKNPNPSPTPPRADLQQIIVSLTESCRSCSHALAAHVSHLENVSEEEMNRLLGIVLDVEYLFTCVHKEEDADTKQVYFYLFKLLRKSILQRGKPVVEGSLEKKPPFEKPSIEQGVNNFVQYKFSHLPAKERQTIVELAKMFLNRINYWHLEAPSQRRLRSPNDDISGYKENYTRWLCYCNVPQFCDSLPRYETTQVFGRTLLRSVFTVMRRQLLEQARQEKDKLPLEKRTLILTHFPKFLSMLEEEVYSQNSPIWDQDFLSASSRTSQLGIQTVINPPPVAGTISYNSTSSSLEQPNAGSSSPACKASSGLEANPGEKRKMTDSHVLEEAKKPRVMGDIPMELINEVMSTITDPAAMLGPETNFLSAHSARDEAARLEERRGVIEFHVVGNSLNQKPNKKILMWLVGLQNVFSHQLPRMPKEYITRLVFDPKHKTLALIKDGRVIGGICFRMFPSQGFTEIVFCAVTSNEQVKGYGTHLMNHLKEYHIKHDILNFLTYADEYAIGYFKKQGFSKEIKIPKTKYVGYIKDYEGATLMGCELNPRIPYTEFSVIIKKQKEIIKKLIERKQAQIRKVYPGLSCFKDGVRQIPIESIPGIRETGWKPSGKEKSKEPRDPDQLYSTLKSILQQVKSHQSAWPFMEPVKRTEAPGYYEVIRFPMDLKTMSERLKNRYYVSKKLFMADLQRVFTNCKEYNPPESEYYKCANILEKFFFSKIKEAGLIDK
# Results are given in words; binding and its absence hold for the method and conditions named. Binding seen in cells or lysates may run through a third protein. Some binding calls cover weakened binding; strength is not graded here.
# Experiments:
# [1] = molecular target: Myocyte enhancer factor-2A (MEF-2A) (human (endogenous in Jurkat, MT-2, C8166, 293 T and primary CD4+ T cells)) (UniProt Q02078); experiment: co-IP; immunoprecipitation with 2 ug anti-MEF-2A antibody (Santa Cruz) overnight at 4°C from sonicated lysates of Jurkat, MT-2, control and HTLV-infected primary CD4+ T cells; lysis buffer 25 mM Tris-HCl pH 7.4, 150 mM NaCl, 1% NP-40, 1 mM EDTA, 5% glycerol; protein A/G magnetic beads; Western blot
# [2] = molecular target: HTLV-1 Tax (viral transactivator protein) (HTLV-1) (UniProt P03409); experiment: co-IP; immunoprecipitation with 2 ug anti-Tax antibody (LT-4) from sonicated lysates of Jurkat, MT-2, control and HTLV-infected primary CD4+ T cells; lysis buffer 25 mM Tris-HCl pH 7.4, 150 mM NaCl, 1% NP-40, 1 mM EDTA, 5% glycerol; protein A/G magnetic beads; Western blot
# [3] = molecular target: HTLV-1 Tax (viral transactivator protein) (HTLV-1) (UniProt P03409); experiment: co-IP; IgG control or Tax immunoprecipitation from whole cell lysates of C8166 cells, immunoblotting
# FLAG-Tax (HTLV-1) = FLAG-Tax (HTLV-1) (UniProt P03409); experiment: co-IP; 293 T cells transfected with mock or FLAG-Tax plasmid for 36 hr; precipitation with anti-FLAG antibody, immunoblotting with anti-MEF-2 antibody
substance,measurement,setting,value
Histone deacetylase 9 (HDAC9) (from UniProt Q9UKV0 1-1011),binding,[1],binds
same,binding,[2],no binding
phosphorylated cAMP response element-binding protein (pCREB) (from UniProt P16220 1-327),binding,[1],binds
same,binding,[2],binds
Myocyte enhancer factor-2A (MEF-2A) (from UniProt Q02078 1-507),binding,[3],binds
same,binding,[2],binds
same,binding,FLAG-Tax (HTLV-1),binds
CREB-binding protein (CBP) (from UniProt Q92793 1-2442),binding,[2],binds
p300 (from UniProt Q09472 1-2414),binding,[2],binds
HTLV-1 Tax (viral transactivator protein) (from UniProt P03409 1-353),binding,[1],binds
p300/CBP associated factor (p/CAF) (from UniProt Q92831 1-832),binding,[2],binds
